Data: PubChem BioAssay (NCATS)
Inconclusive means that the source gave no clear call. Such entries were picked first, then a sample of the others. For part of these data: Potencies of inconclusive entries are left out as doubtful fits. Active and inactive are the calls of the source. Unless noted, calls come from the whole dose curve; as a rule, active = well fitted curve in the direction sought with a large enough effect; inconclusive = small, poorly fitted or top-dose-only effect, or another doubt; inactive = no such curve, though single readings can be large; an effect the other way counts as inactive or inconclusive.

Experiments:
[1] = Cytometry Cell-Based qHTS for Inhibitors of the mTORC1 Signaling Pathway in MEF cells (AID 2668); note: potency is the fitted concentration of half-maximal effect
How it was run: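 WT MEFs (Tsc2-/-, p53-/- stably re-expressing WT Tsc2) in DMEM + 10% FBS received compounds 24 hrs after plating, for 24 hrs at 37 degree Celsius. Fixed cells stained with Alexa-488 anti-phospho-rpS6 Ser235/236 and propidium iodide; laser-scanning cytometry read-out.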

[2] = Validation screen for small molecules that induce DNA re-replication in MCF 10A normal breast cells (AID 463097); note: nearly all actives have a fitted effect of over 60% in size; note: potency is the fitted concentration of half-maximal effect
How it was run: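 Readout: Hoechst nuclear fluorescence intensity, 405 ex / 500-530 em, by scanning plate imager; re-replication scored as increase in nuclei with elevated DNA content. Cells exposed to compound 48 hr, 37 C, 5% CO2 beforehand.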

[3] = molecular target: Ubiquitin carboxyl-terminal hydrolase 2 (Homo sapiens) (UniProt O75604); assay: qHTS Validation Assay for Inhibitors of Ubiquitin-specific Protease USP2a Using CHOP2 as the Reporter (AID 463106); note: potency is the fitted concentration of half-maximal effect
How it was run: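 Readout was coupled fluorescence (Ex 485/Em 531 nm), read 60 min after adding 25 nM final Ub-CHOP2 and 25 nM reporter substrate. Beforehand, 10 nM final USP2 core had 30 min at RT with compound in pH 8.0 buffer. Curves were fitted after normalization to NEM and flagged for artifacts using time-zero reads.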

[4] = molecular target: ATP-dependent 6-phosphofructokinase (Trypanosoma brucei brucei) (UniProt O15648); assay: qHTS Validation Assay to Find Inhibitors of T. brucei phosphofructokinase (AID 485368); note: potency is the fitted concentration of half-maximal effect
How it was run: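 qHTS format, up to 57 uM. PFK 1.25 nM; F6P 0.5 mM; ATP 0.1 mM; 5 mM MgCl2, 0.01% Tween20, 0.1% BSA; 0.1 M TEA pH 8.0; 45 min RT; ADP-Glo readout; no-enzyme control = full inhibition.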

[5] = High Content Imaging Cell-Based qHTS for Inhibitors of the mTORC1 Signaling Pathway in MEF Cells (AID 2667); note: potency is the fitted concentration of half-maximal effect
How it was run: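 Tsc2-/-, p53-/- MEFs stably re-expressing WT Tsc2, grown in DMEM + 10% FBS, were treated with compounds for 24 hrs at 37 degree Celsius, fixed, and stained with Alexa-488 phospho-rpS6 Ser235/236 antibody plus Hoechst; results given as % positive cells.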

[6] = Quantitative high throughput screen for delayed death inhibitors of the malarial parasite plastid, 48 hour incubation (AID 488752); note: potency is the fitted concentration of half-maximal effect; nearly all actives have a fitted effect of over 65% in size
How it was run: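 Cultures: infected erythrocytes at final 2% hematocrit and 0.1% parasitemia in Albumax-supplemented RPMI. Parasites express integrated firefly luciferase. Incubation with compound lasts 48 h before luminescent detection of remaining reporter activity.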

[7] = molecular target: Thioredoxin reductase 1, cytoplasmic (Rattus norvegicus) (UniProt O89049); assay: qHTS Assay for Substrates of Mammalian Selenoprotein Thioredoxin Reductase 1 (TrxR1) (AID 488772);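 note: 0% is about no effect; a drop in NADPH fluorescence below the no-compound background marks a TrxR1 substrate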
How it was run: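 In this dual-purpose format, potential substrates are identified from the first fluorescence read after selenite addition, not from the 8-minute delta. Rat enzyme is preincubated with NADPH and then with compound at ~22 deg C.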

[8] = qHTS Validation Assay to Find Inhibitors of Chronic Active B-Cell Receptor Signaling (AID 485345; active = well fitted curve in the direction sought with a large enough effect in the main read-out, with a control signal flat, not every such curve was filed as active; inconclusive = small, poorly fitted or top-dose-only effect, or effect the other way, or a change in a side signal; inactive = no such curve, though single readings can be large or run the other way;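 note: 0% = untreated basal cells and 100% = 10 µM MG-132 proteasome inhibitor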); details: ABC-DLBCL cells, chronic BCR signaling reporter; activity change: CBG luciferase, at 46.1 µM (top of the series)
How it was run: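 Read-out: ratio of filter-corrected green (IkappaBalpha fusion) to red (native) luciferase signal in doxycycline-induced TMD8 cells after 4 h at 37C. Titration spanned 46 uM–3 nM; Data were normalised to basal cells and 10 uM MG-132 wells.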

[9] = molecular target: Thioredoxin reductase 1, cytoplasmic (Rattus norvegicus) (UniProt O89049); assay: qHTS Assay for Inhibitors of Mammalian Selenoprotein Thioredoxin Reductase 1 (TrxR1) (AID 488773); details: Potency: inhibition; note: potency is the fitted concentration of half-maximal effect; nearly all actives have a fitted effect of over 40% in size
How it was run: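 Inhibition is scored from the loss of NADPH fluorescence between first and last reads of an 8-min kinetic run. Selenite (400 uM) was the substrate, added after 15 min compound preincubation at room temperature.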
Tags give direction and shape of the fitted curve or compound fluorescence and quenching.

Sequence of UniProt O15648 (O15648 whole entry, looked up): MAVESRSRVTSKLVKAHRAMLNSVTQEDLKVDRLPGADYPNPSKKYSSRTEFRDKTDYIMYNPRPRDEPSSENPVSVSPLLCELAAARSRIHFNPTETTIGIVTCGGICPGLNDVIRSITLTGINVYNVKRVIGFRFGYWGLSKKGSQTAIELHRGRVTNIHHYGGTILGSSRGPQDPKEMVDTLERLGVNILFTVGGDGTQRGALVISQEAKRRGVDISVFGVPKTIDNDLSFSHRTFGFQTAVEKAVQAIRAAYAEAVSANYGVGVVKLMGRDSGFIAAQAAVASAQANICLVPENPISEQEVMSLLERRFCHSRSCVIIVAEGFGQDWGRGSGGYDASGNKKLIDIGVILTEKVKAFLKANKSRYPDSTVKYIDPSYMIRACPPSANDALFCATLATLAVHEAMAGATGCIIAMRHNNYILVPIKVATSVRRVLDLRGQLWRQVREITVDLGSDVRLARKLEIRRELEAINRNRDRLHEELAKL
Sequence of UniProt O75604 (O75604 whole entry, looked up): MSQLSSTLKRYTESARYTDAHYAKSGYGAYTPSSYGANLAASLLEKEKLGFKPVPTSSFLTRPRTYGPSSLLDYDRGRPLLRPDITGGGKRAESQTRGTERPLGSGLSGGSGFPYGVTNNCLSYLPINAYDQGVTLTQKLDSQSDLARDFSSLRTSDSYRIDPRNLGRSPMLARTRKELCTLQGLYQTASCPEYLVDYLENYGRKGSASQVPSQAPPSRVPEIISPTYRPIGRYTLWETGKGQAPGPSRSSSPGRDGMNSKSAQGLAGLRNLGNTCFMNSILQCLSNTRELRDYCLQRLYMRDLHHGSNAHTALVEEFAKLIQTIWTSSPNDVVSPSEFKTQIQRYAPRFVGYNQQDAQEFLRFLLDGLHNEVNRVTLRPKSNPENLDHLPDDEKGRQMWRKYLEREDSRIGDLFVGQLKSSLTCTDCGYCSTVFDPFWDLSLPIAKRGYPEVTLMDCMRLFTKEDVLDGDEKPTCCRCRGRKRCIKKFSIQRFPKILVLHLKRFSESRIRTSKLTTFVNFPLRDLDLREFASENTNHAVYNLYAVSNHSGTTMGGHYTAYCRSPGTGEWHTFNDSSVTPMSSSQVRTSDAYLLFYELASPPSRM
Sequence of UniProt O89049 (O89049 whole entry, looked up): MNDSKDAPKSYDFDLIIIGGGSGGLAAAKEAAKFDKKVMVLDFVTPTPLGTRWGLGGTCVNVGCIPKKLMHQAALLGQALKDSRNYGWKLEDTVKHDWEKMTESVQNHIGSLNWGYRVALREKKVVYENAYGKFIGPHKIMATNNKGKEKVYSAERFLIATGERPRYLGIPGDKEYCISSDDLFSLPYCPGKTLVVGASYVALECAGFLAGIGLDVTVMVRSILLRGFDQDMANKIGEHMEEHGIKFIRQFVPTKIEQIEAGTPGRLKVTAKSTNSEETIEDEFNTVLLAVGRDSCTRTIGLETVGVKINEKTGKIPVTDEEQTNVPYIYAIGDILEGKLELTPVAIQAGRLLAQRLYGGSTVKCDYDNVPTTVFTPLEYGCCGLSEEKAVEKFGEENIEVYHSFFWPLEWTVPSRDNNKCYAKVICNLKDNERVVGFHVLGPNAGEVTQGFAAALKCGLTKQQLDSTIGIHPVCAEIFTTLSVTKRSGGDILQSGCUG

For `Cc1cc(C(C)(C)C)c(O)c(C)c1CC1=NCCN1`, which Potency [1] is on record?
Its Potency is “inactive”.

What about the Potency [2] of the same compound?
Its Potency is “inactive”.

With `Cn1cc(C2=C(c3ccc(Cl)cc3Cl)C(=O)NC2=O)c2ccccc21` as the compound, how does the Potency [2] read?
Its Potency is inconclusive [activator, partial curve].

And the Potency [3]?
The Potency was inconclusive [fluorescent, partial curve].

What about the Potency [4] of the same compound?
The Potency was “inactive”.

With `O[Si](CCCN1CCCCC1)(c1ccc(F)cc1)C1CCCCC1` (centres undefined) as the compound, how does the Potency [5] read?
Its Potency is inconclusive [falling, single point].

And the Potency [1]?
The Potency was inconclusive [falling, single point].

What about the Potency [6] of the same compound?
The Potency was active: 0.117 µM.

And the Potency [7]?
The Potency was “inactive”.

With `O=C1Cc2cc(CCN3CCN(c4nsc5ccccc45)CC3)c(Cl)cc2N1` as the compound, how does the Potency [1] read?
Its Potency is “inactive”.

Which Potency [1] does the source give for `CC(C)(C(=O)O)c1ccc(C(O)CCCN2CCC(C(O)(c3ccccc3)c3ccccc3)CC2)cc1` (centres undefined) here?
Its Potency is “inactive”.

And the Potency [4]?
The Potency was inconclusive [activator, single point].

Which Potency [5] does the source give for `C[N+](C)(C)CC(=O)O` here?
The Potency was “inactive”.

What about the Potency [3] of the same compound?
Its Potency is “inactive”.

And the Potency [8]?
Its Potency is “inactive”.

What about the Potency [4] of the same compound?
Its Potency is inconclusive [activator, full curve].

What does the source list for `O=Nc1c(-c2c(O)[nH]c3ccccc23)[nH]c2ccccc12`?
Potency [1]: inconclusive [falling, full curve]; Potency [2]: inconclusive [activator, single point]; Potency [4]: inactive; Potency [6]: inconclusive [inhibitor, partial curve]

For `Cc1ccc(S(=O)(=O)/C=C/C#N)cc1`, which Potency [1] is on record?
Its Potency is inconclusive [falling, full curve, poor fit].

And the activity change [8]?
The activity change was inconclusive: 60.7%.

What about the Potency [4] of the same compound?
The Potency was inconclusive [falling, full curve].

What about the Potency [9] of the same compound?
The Potency was active: 0.238 µM.
